Results taken from US20260209297A1, “ANTIMICROBIAL PEPTIDES AND MODIFICATIONS THEREOF” (priority 2022, published 2026).
Residues, ends and D or L forms follow the SMILES beside them.

Test system: B. cinerea
Assay: Semi-in planta gray mold assay on detached Nicotiana benthamiana leaves (drop inoculation)
Format: in vivo, Botrytis cinerea
Settings: compared with GMA4C_AC or GMA4C_V2A

CC[C@H](C)[C@H](NC(=O)[C@H](CCCNC(=N)N)NC(=O)[C@@H](NC(=O)[C@@H](NC(=O)[C@H](Cc1ccccc1)NC(=O)[C@@H](NC(=O)[C@H](CCCNC(=N)N)NC(=O)[C@H](CCCNC(=N)N)NC(=O)[C@H](CCCNC(=N)N)NC(=O)[C@H](Cc1ccccc1)NC(=O)CNC(=O)[C@H](CCCNC(=N)N)NC(=O)[C@H](CS)NC(=O)[C@H](CCCNC(=N)N)NC(=O)CNC(=O)CN)C(C)C)C(C)C)[C@@H](C)O)C(=O)N[C@@H](CS)C(N)=O [GMA4C_V3A] (H-GGRCRGFRRRVFVTRIC-NH2; N-terminus assumed)
reducing gray mold disease symptoms caused by B. cinerea: more potent

CC[C@H](C)[C@H](NC(=O)[C@H](CCCNC(=N)N)NC(=O)[C@@H](NC(=O)[C@H](CS)NC(=O)[C@H](Cc1ccccc1)NC(=O)[C@H](CS)NC(=O)[C@H](CCCNC(=N)N)NC(=O)[C@H](CCCNC(=N)N)NC(=O)[C@H](CCCNC(=N)N)NC(=O)[C@H](Cc1ccccc1)NC(=O)CNC(=O)[C@H](CCCCN)NC(=O)[C@H](CS)NC(=O)[C@H](CCCNC(=N)N)NC(=O)CNC(=O)CN)[C@@H](C)O)C(=O)N[C@@H](CS)C(N)=O [GMA4C_V1A] (H-GGRCKGFRRRCFCTRIC-NH2; N-terminus assumed)
reducing gray mold disease symptoms caused by B. cinerea: more potent
